The text below walks through data of the supplement of paper PMC8047034.

Where a name gives a salt, the structure may show the parent alone. This is one part of the list. Single values are uncertain, as repeats are few or missing.

One assay relates to OVCAR4. Nature of the assay: log2 surviving fraction (library drug vs vehicle, or drug + carboplatin vs carboplatin alone; relative to plate median); ovarian cancer lines: OVCAR4 is platinum-sensitive and Ov4Carbo platinum-resistant; higher = more cell survival. Particulars: library drug concentration 10 µM, 7 days.
Another assay relates to Ov4Carbo. The assay is described as above. The conditions noted are these: library drug concentration 10 µM, 7 days.

For the molecule `CN1[C@@H]2CC(O)C[C@H]1[C@@H]1O[C@@H]12` (stereo partly drawn) [Scopine], the log2 surviving fraction in the assay on OVCAR4 (carboplatin co-treatment 0 µM) is 0.466; in the assay on OVCAR4 (carboplatin co-treatment 5 µM) it was -0.139; in the assay with Ov4Carbo (carboplatin co-treatment 0 µM) it was 0.325; in the assay with Ov4Carbo (carboplatin co-treatment 5 µM), -0.226.
`O=C1O[C@H]([C@@H](O)CO)C(O)=C1O` [Vitamin C (Ascorbic acid)]: the log2 surviving fraction came to 1.02 in the assay with OVCAR4 (carboplatin co-treatment 0 µM), 0.428 with OVCAR4 (carboplatin co-treatment 5 µM), 0.364 with Ov4Carbo (carboplatin co-treatment 0 µM) and 0.0865 in the assay with Ov4Carbo (carboplatin co-treatment 5 µM).
As for `C[N+]1(C)CCOC(O)(c2ccc(-c3ccc(C4(O)C[N+](C)(C)CCO4)cc3)cc2)C1` (stereo not drawn) [Hemicholinium Bromide], the log2 surviving fraction with OVCAR4 (carboplatin co-treatment 0 µM) was 0.447; with OVCAR4 (carboplatin co-treatment 5 µM), -0.424; in the assay on Ov4Carbo (carboplatin co-treatment 0 µM) it was -0.0637; in the assay on Ov4Carbo (carboplatin co-treatment 5 µM), -0.957.
For the molecule `C#CCN(C)CCCOc1ccc(Cl)cc1Cl` [Clorgyline HCl], the log2 surviving fraction with OVCAR4 (carboplatin co-treatment 0 µM) is -0.276; in the assay with OVCAR4 (carboplatin co-treatment 5 µM) it was 0.133; in the assay on Ov4Carbo (carboplatin co-treatment 0 µM) it was 0.608; in the assay with Ov4Carbo (carboplatin co-treatment 5 µM), -0.331.
On to `O=C(O)CCc1nc(-c2ccccc2)c(-c2ccccc2)o1` [Oxaprozin], for which the log2 surviving fraction in the assay on OVCAR4 (carboplatin co-treatment 0 µM) is 1.24; with OVCAR4 (carboplatin co-treatment 5 µM), 1.32; in the assay with Ov4Carbo (carboplatin co-treatment 0 µM), 0.951; in the assay on Ov4Carbo (carboplatin co-treatment 5 µM) it was 1.06.
As to `CN1CCN(c2c(F)cc3c(=O)c(C(=O)O)cn(CCF)c3c2F)CC1` [Fleroxacin (Quinodis)], the log2 surviving fraction with OVCAR4 (carboplatin co-treatment 0 µM) is 0.618; in the assay with OVCAR4 (carboplatin co-treatment 5 µM), -0.0688; in the assay on Ov4Carbo (carboplatin co-treatment 0 µM), 0.133; in the assay with Ov4Carbo (carboplatin co-treatment 5 µM) it was 0.563.
In the same order, the values of `NC[C@H](CC(=O)O)c1ccc(Cl)cc1` [(R)-baclofen] are 1.29, 1.69, 0.68 and 1.51.
As for `CN1CCOC(c2ccccc2)c2ccccc2C1` (stereo not drawn) [Nefopam HCl], the log2 surviving fraction in the assay on OVCAR4 (carboplatin co-treatment 0 µM) was -0.576; in the assay on OVCAR4 (carboplatin co-treatment 5 µM), -0.818; in the assay on Ov4Carbo (carboplatin co-treatment 0 µM), -0.0292; in the assay on Ov4Carbo (carboplatin co-treatment 5 µM), -1.88.
Consider `CN1CCN(CCCN2c3ccccc3Sc3ccc(C(F)(F)F)cc32)CC1` [Trifluoperazine 2HCl], for which the log2 surviving fraction in the assay with OVCAR4 (carboplatin co-treatment 0 µM) was -2.55; in the assay on OVCAR4 (carboplatin co-treatment 5 µM) it was -1.42; in the assay with Ov4Carbo (carboplatin co-treatment 0 µM), -4.05; in the assay with Ov4Carbo (carboplatin co-treatment 5 µM) it was -3.61.
As to `C[C@H]1[C@H](NC(=O)/C(=N\OC(C)(C)C(=O)O)c2csc(N)n2)C(=O)N1S(=O)(=O)O` [Aztreonam (Azactam, Cayston)], the log2 surviving fraction in the assay on OVCAR4 (carboplatin co-treatment 0 µM) amounted to 0.922; with OVCAR4 (carboplatin co-treatment 5 µM) it was 0.683; in the assay on Ov4Carbo (carboplatin co-treatment 0 µM) it was 0.945; in the assay with Ov4Carbo (carboplatin co-treatment 5 µM) it was 0.338.
In the same order, the values of `CNS(=O)(=O)CCc1ccc2[nH]cc(C3CCN(C)CC3)c2c1` [Naratriptan HCl] are 0.63, 0.244, -1.52 and 0.32.
In the case of `NS(=O)(=O)Cc1noc2ccccc12` [Zonisamide], the log2 surviving fraction was determined as 0.599 in the assay on OVCAR4 (carboplatin co-treatment 0 µM), 0.768 in the assay with OVCAR4 (carboplatin co-treatment 5 µM), 1.04 with Ov4Carbo (carboplatin co-treatment 0 µM) and 0.21 in the assay with Ov4Carbo (carboplatin co-treatment 5 µM).
